Results published in PubChem BioAssay AID1240 (Sanford-Burnham Center for Chemical Genomics, 2008).
Hit rate of the full screen: of about 50,000 compounds, about 800 (1.6%) showed an effect of 50% or more. This is one part of the list.

Molecular target: Bcl-2-like protein 10 (Homo sapiens) (UniProt Q9HD36)
Assay: Phenotype converters, Bcl-B/TR3 peptide binding displacement, primary biochemical FP (AID 1240);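 further: 0% = Bcl-B with tracer peptide and DMSO and 100% = tracer peptide lacking Bcl-B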
Conditions: GST-Bcl-B / FITC-TR3 peptide fluorescence polarization; stronger effect = higher value; compound at 3.75 mg/L

Sequence of UniProt Q9HD36 (Q9HD36 whole entry, looked up): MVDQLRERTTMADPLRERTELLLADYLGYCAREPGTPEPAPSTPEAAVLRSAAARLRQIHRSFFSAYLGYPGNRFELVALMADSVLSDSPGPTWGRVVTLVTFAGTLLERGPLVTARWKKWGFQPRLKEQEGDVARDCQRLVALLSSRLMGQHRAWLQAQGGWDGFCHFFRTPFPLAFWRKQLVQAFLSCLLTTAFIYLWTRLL

SMILES | displacement [%]
O=S(=O)(/N=C(/c1ccccc1)N1CCOCC1)c1ccccc1 | 9.8
Cc1cc(Cl)ccc1OCC(=O)Nc1ccc(Br)c(NC(=O)c2ccccc2)c1 | 6.6
CCc1cccc(C)c1NC(=O)c1cc(OC)c(OC)cc1[N+](=O)[O-] | 15.6
CC(=O)c1cccc(N/C=C/[N+](=O)[O-])c1 | 15.2
Cc1c(NC(=O)/C=C/c2ccc(Cl)cc2)cccc1-c1nc2ncccc2o1 | 19
COc1ccc(N2C(=O)/C(=C\c3ccc4c(c3)OCO4)SC2=S)cc1 | 18.8
O=C(Nc1ccccc1C(F)(F)F)C1COc2ccccc2O1 (stereo not drawn) | -3.4
Cc1cc(/C=N/NC(=O)c2ccccn2)c(C)n1-c1cccc(Cl)c1 | -15.5
CC(=O)c1ccc(NC(=O)c2ccc(-c3ccc(Br)cc3)o2)cc1 | 4.7
Cc1cc(N(C)/N=C/c2ccccc2Cl)nc(-c2ccccc2O)n1 | 5.1
CCC1=NN2C(=N)/C(=C/c3ccc(-c4ccc(C(=O)O)cc4)o3)C(=O)N=C2S1 | 44.1
O=C(c1cccc([N+](=O)[O-])c1)c1ccc2c(c1)C(=O)N(NC(=O)c1ccco1)C2=O | 14.1
CC(Oc1ccccc1)C(=O)Nc1ccccc1I (stereo not drawn) | -3.2
O=C1CCCc2nc(-c3ccccc3)cc(-c3ccccc3)c21 | 6.3
Cc1cccc(NC(=O)COc2ccc3ccccc3c2)n1 | -0.5
CC(C)(C)NC(=O)CC12CC3CC(C1)CC(CC(=O)NC(C)(C)C)(C3)C2 | 4.4
O=[N+]([O-])c1ccc(NCCNS(=O)(=O)c2ccccc2)c(Cl)c1 | 9.8
CC1(C)CC(=O)C2=C(C1)Nc1ccccc1N(C(=O)Cc1ccccc1)C2c1cccc(O)c1 (stereo not drawn) | -14.3
COc1cccc(CN2CCN(Cc3cccn3C)CC2)c1 | 17.7
COc1ccc(N2C(=O)C3ON(c4ccccc4)C(c4ccco4)C3C2=O)cc1 (stereo not drawn) | -5.5
Cc1ccc(OCC(=O)N2CCN(c3ccc([N+](=O)[O-])cc3)CC2)c(Br)c1 | -3.8
COc1c(Cl)ccc(Cl)c1C(=O)Nc1ccc(C)cc1 | -7.9
NC1=NN(c2ccc(N)cc2)CC1 | 48.8

SMILES | displacement [%]
COc1ccc(/C=c2\sc3nc(-c4ccc(Cl)cc4Cl)nn3c2=O)cc1 | 19.2
Cc1cccc(NC(=O)Nc2ccc(-c3nc4ccccc4s3)cc2)c1 | 16.3
C/C(CC(=O)Nc1ccc(Nc2ccccc2)cc1)=N\NC(=O)c1ccccc1C | -13
O=C(CSc1nc2ccccc2[nH]1)Nc1ccc2c(c1)oc1ccccc12 | 4
Cc1nc(NC(=O)c2ccccc2)sc1-c1csc(Nc2ccc(N)cc2)n1 | 6.4
NC(=O)c1c(NC(=O)/C=C/C(=O)O)sc2c1CCCC2 | -0.6
COC(=O)c1ccccc1NC(=O)CN(c1ccc(OC)cc1)S(C)(=O)=O | 8.1
CC12CC3CC(C1)CC(CC(=O)O)(C3)C2 | -9.3
N#C/C(=C/c1ccc(C#N)cc1)C(=O)Nc1cccc(Br)c1 | -8.5
COc1ccc(/C=C(/NC(=O)c2ccco2)C(=O)N2CCCCC2)cc1 | 3.9
O=C(NCCCN1CCOCC1)c1cc2n(n1)C(C(F)(F)F)CC(c1ccc(Cl)c(Cl)c1)N2 (stereo not drawn) | 6.5
CC1=C(C(=O)OCCC(C)C)C(c2ccc(Cl)cc2)NC(=O)N1 (stereo not drawn) | 8.4
Cc1cc(N2C(=O)NC(=O)/C(=C\c3ccc(N(C)C)o3)C2=O)ccc1Br | 153
COc1ccc(C)cc1NC(=O)C1CC1c1ccccc1 (stereo not drawn) | -0.4
COc1ccc(CNC(=O)COc2cc(C)c(Cl)c(C)c2)cc1 | -7.9
O=C(c1cccc(Cl)c1Cl)N1CCN(c2ccc([N+](=O)[O-])cc2)CC1 | 9.6
CCOC(=O)C1=C(C)NC2=C(C(=O)CCC2)C1c1ccsc1 (stereo not drawn) | 5.2
CCOc1cccc2c1N(C(C)=O)C(C)(C)C(=S)C2=C1SC(C(=O)OC)=C(C(=O)OC)S1 | 2
CCc1ccc(NC(=O)C(=O)NCCN2CCN(C(=O)c3ccccc3Cl)CC2)cc1 | 5.6
O=C(/C=C/c1ccco1)NCCCCNC(=O)/C=C/c1ccco1 | 18.3
O=C(O)/C=C/C(=O)Nc1ccc(S(=O)(=O)N2CCCCCC2)cc1 | 10
O=c1c2ccccc2nc(SCc2ccccc2)n1Cc1ccccc1 | -0.7
N#C/C(=C(/O)CN1C(=O)c2ccccc2C1=O)c1nc2ccccc2[nH]1 | -1.5

SMILES | displacement [%]
COc1ccc(C(=O)Nc2nc(-c3ccccc3)c(-c3ccccc3)s2)cc1[N+](=O)[O-] | 15.8
O=C1c2cccc3cccc(c23)C(=O)N1CCOc1ccccc1Cl | -0.4
O=C(/C=C/c1cc(Br)cs1)Nc1cccc2ncccc12 | 10.9
CCCC(=O)Nc1ccc(NC(=O)c2cc([N+](=O)[O-])ccc2Br)cc1 | -2.5
CCOc1ccc(NC(=O)c2cc3cc(OC)ccc3oc2=O)cc1 | 13.8
CCCCOC(=O)Nc1ccc(S(=O)(=O)Nc2cccc([N+](=O)[O-])c2)cc1 | -1
COc1cc(/C=N\Nc2nc3ccccc3o2)cc(OC)c1OC | -6.9
CC(NS(=O)(=O)c1ccc([N+](=O)[O-])cc1)C(=O)O (stereo not drawn) | 11.4
COc1cccc(N(CC(=O)O)S(=O)(=O)c2ccccc2)c1 | 5.3
O=C(CN1C(=O)/C(=C/c2ccccc2Cl)SC1=S)Nc1ccc(C(=O)O)cc1 | 3.9
COc1ccc(-c2ccc(/C=C/C(=O)c3ccc(Cl)cc3)o2)cc1 | -16.7
O=C(Nc1c(C(=O)Nc2ccc(Br)cc2)cnn1-c1ccccc1)c1cccc(F)c1 | 1.4
COC(=O)c1ccc(/C=C(/C#N)C(=O)Nc2ccc(O)cc2)cc1 | 1.4
CC(C)c1cc(CN(C)C)cc(C(C)C)c1O | -4.1
COC(=O)c1c(NC(=O)c2cc(OC)c(OC)c(OC)c2)sc2c1C(C(=O)OC)CC2 (stereo not drawn) | -1
O=C(Nc1ccc(S(=O)(=O)Nc2nccs2)cc1)C1CCCCC1 | 14.5
Nc1ccc(C(c2ccccc2)c2ccc(N)c(Cl)c2)cc1Cl | -1.2
COC(=O)c1cccc(NC(=O)c2cc[n+](C)cc2)c1 | 2.5
COC(=O)c1ccccc1NC(=O)C(c1ccccc1)c1ccccc1 | -5.3
Cc1ccc(Br)cc1S(=O)(=O)n1nnc2ccccc21 | -11.4
COc1ccccc1C(=O)O/N=C(/c1ccncc1)c1ccc([N+](=O)[O-])cc1 | 0.6
CCc1ccc(/C=C2\C(=O)NN(c3ccccc3)C2=O)cc1 | 11.4
